Measurements as given in PubChem BioAssay AID540317 (National Center for Advancing Translational Sciences (NCATS), 2011).
In all, about 390,000 compounds went through this assay and about 2,200 (0.56%) were called active. Inconclusive means that the source gave no clear call. Such entries were picked first, then a sample of the others. Calls follow the shape of the dose curve; as a rule, active = well fitted inhibition curve with a large enough effect; inconclusive = small, poorly fitted or top-dose-only effect; inactive = no such curve, though single readings can be large or run the other way. Potencies of inconclusive entries are doubtful fits and often do not repeat.
Also: nearly all actives have a fitted effect of over 70% in size.
Potency is read from the fitted curve at half-maximal effect; tags tell the direction and shape of the fitted curve.

The molecules below were run against Chromobox protein homolog 1 (Homo sapiens) (UniProt P83916) (assay: HTS for Inhibitors of HP1-beta Chromodomain Interactions with Methylated Histone Tails). Conditions: AlphaScreen HP1-beta / biotin-H3K9me3 peptide binding; series mostly up to 114 µM; activity change, negative = inhibition: at the top concentration.
UniProt P83916, sequence (P83916 whole entry, looked up): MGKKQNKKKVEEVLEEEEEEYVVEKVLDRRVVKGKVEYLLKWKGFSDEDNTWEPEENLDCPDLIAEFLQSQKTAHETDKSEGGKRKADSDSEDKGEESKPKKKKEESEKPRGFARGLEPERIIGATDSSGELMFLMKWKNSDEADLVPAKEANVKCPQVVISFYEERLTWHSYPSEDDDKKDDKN
How it was run: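 HP1-beta protein (50 nM final) preincubated 30 min at room temperature with biotinylated H3(1-18)K9me3 peptide (50 nM) in PBS pH 7.4, 0.01% Tween-20, then compound added for 30 min. AlphaScreen streptavidin donor/nickel chelate acceptor beads (10 ug/mL final), 30 min dark, luminescence read.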
`CCn1cc(S(=O)(=O)c2cccc(C)c2)c(=O)c2cc(F)c(N3CCCC(C)C3)cc21` (stereo not given) was tested, and the “activity change, negative = inhibition” value was inactive: 28.4%. `Cc1ccc(C(=O)OCCN(C)Cc2ccccc2)cc1` was tested, and the “activity change, negative = inhibition” value was inactive: 36%. `CN1CCN(CCOCCOc2ccc(Br)cc2Cl)CC1` was tested, and the Potency was inconclusive: 25.1 µM [inhibitor, partial curve]. In the case of `Cc1ccc(OC(=S)Nc2ccc(F)cc2)cc1`, the Potency is reported as inconclusive: 39.8 µM [inhibitor, partial curve, poor fit]. With `Cc1cc(SCC(=O)N/N=C/c2ccc(O)c(O)c2O)c(C)cc1Br` the Potency was inconclusive: 56.2 µM [inhibitor, single point]. `COc1ccccc1/C=C/CN1CCCCC1` was tested, and the Potency was inconclusive: 35.5 µM [inhibitor, single point]. With `OC[C@@H](O)[C@H](O)C(/C=N/Nc1ccccc1)=N\Nc1ccccc1` the Potency was inconclusive: 89.1 µM [inhibitor, single point]. For `OCCCNCc1ccc(N(c2ccccc2)c2ccccc2)cc1`, the Potency was active: 70.8 µM. In the case of `COc1ccc(NC2CCCN(C(=O)CCc3cccc(Cl)c3)C2)cc1` (stereo not given), the Potency is reported as inconclusive: 44.7 µM [inhibitor, partial curve]. For `COc1ccc(CCC(=O)Nc2cnc3ccccc3c2)cc1`, the “activity change, negative = inhibition” value was inactive: 31.4%. With `Cc1ccc(-n2nc3c(=O)n(CC(=O)NCC(C)c4ccccc4)nc(C)c3c2C)cc1` (stereo not given) the “activity change, negative = inhibition” value was inactive: 26.2%. For `CCOC(=O)c1c(C)[nH]c(C)c1C(=O)COC(=O)CSc1ccc(C)cc1`, the Potency was inconclusive: 31.6 µM [inhibitor, partial curve]. With `CCOc1ccc(NC(=O)CN(C)C(=O)c2ccncc2)cc1OCC` the “activity change, negative = inhibition” value was inactive: 45.6%. With `CCCOc1ccc(OCCOCCN2CCc3ccccc3C2)cc1` the Potency was inconclusive: 28.2 µM [inhibitor, partial curve, poor fit]. For `O=C(NC1CCCCC1)c1cc(-c2ccccn2)nc2ccccc12`, the “activity change, negative = inhibition” value was inactive: 14.8%. With `O=C(c1cccc2ccccc12)C1CCCN(C(=O)c2ccc(N3CCOCC3)cc2)C1` (stereo not given) the Potency was inconclusive: 70.8 µM [inhibitor, partial curve, poor fit]. In the case of `C#CCOCCOCCOCCNc1nc(N2CCN(C(=O)[C@H](CCC(=O)O)n3cc([C@@H](N)CC(N)=O)nn3)CC2)nc(N2CCN(C(=O)[C@H](CCC(=O)O)n3cc([C@@H](N)CC(N)=O)nn3)CC2)n1`, the “activity change, negative = inhibition” value is reported as inactive: 41.8%. For `N#CC1=C2SCN(Cc3ccco3)CN2C(=O)CC1c1cccc2ccccc12` (stereo not given), the Potency was inconclusive: 39.8 µM [inhibitor, partial curve]. With `C=CCn1c(C)cc(C(=O)CN2C(=O)NC3(CCCc4ccccc43)C2=O)c1C` (stereo not given) the Potency was inconclusive: 17.8 µM [inhibitor, full curve, poor fit]. In the case of `O=C1NC(=O)/C(=C\c2ccc(O)cc2O)S1`, the Potency is reported as inconclusive: 35.5 µM [inhibitor, partial curve]. `O=C(NNC(=S)Nc1ccccc1)c1cccnc1` was tested, and the “activity change, negative = inhibition” value was inactive: 37.5%. In the case of `C/C(=C\c1ccc2c(c1)OCO2)C1Nc2cccc3cccc(c23)N1`, the Potency is reported as inconclusive: 14.1 µM [inhibitor, full curve]. With `COc1ccc2c(c1)-c1c(ssc1=S)C(C)(C)N2C(=O)CSC1=NCCS1` the Potency was inconclusive: 8.91 µM [inhibitor, full curve]. `COc1ccc(CC(=O)NCc2n[nH]c(=S)n2-c2cccc(Cl)c2)cc1` was tested, and the “activity change, negative = inhibition” value was inactive: 43.9%. With `COc1ccc(/C=N/NC(=O)c2nn(-c3ccccc3)c(=O)c3c(N)scc23)cc1` the Potency was inconclusive: 20 µM [inhibitor, partial curve, poor fit]. In the case of `CCCCN1C(=O)/C(=C2/C=CC=CN2C)SC1=S`, the Potency is reported as inconclusive: 15.8 µM [inhibitor, full curve, poor fit]. With `C=CCn1c(=O)/c(=C/c2ccc(C)o2)s/c1=C(/C#N)C(=O)c1ccccc1` the Potency was inconclusive: 8.91 µM [inhibitor, partial curve, poor fit]. `COc1ccc(OCCCC(=O)N2CCN(S(=O)(=O)c3cccc(F)c3)CC2)cc1` was tested, and the “activity change, negative = inhibition” value was inactive: -12.6%. For `CCn1c(C)cc(C(=O)COC(=O)c2ccccc2[N+](=O)[O-])c1C`, the Potency was inconclusive: 79.4 µM [inhibitor, partial curve]. With `Cc1cccc(NC(=O)COC(=O)c2cccc3c2C(=O)c2ccccc2C3=O)c1C` the Potency was inconclusive: 35.5 µM [inhibitor, partial curve]. For `CSc1ccc(/C=N/NC(=O)CN2CCN(Cc3ccc(Cl)cc3)CC2)cc1`, the Potency was inconclusive: 22.4 µM [inhibitor, single point]. For `COC(=O)CSc1nc2sc3c(c2c(=O)n1-c1ccccc1C)CC(C)(C)OC3`, the “activity change, negative = inhibition” value was inactive: 37.2%. With `O=C(O)CSC1=NS(=O)(=O)c2ccccc21` the Potency was inconclusive: 15.8 µM [inhibitor, partial curve, poor fit]. For `CCN(CC)c1ccc(NC(=O)c2ccccc2)cc1S(=O)(=O)Nc1ccccc1OC`, the Potency was inconclusive: 0.708 µM [inhibitor, full curve, poor fit]. In the case of `O=[N+]([O-])c1cc2oc3c(c2c(C=NCc2ccccc2)c1O)CCCC3`, the Potency is reported as inconclusive: 39.8 µM [inhibitor, full curve]. `Cc1ccc(N2CCN(c3ncccc3[N+](=O)[O-])CC2)c(C)c1` was tested, and the Potency was inconclusive: 50.1 µM [inhibitor, partial curve, poor fit]. With `CSc1ccccc1NC(=O)CN(C)C(C)C(=O)NCc1ccc2c(c1)OCO2` (stereo not given) the Potency was inconclusive: 20 µM [inhibitor, full curve, poor fit]. `Cc1ccc(Nc2c(-c3ccsc3)nc3c(C)cccn23)cc1` was tested, and the Potency was inconclusive: 39.8 µM [inhibitor, partial curve]. For `COc1ccc(C2CC2/C(=N/O)c2ccccc2)cc1` (stereo not given), the Potency was inconclusive: 5.62 µM [inhibitor, full curve]. `Cc1nc(SCC(=O)N2c3ccccc3NC(=O)CC2C)c2c(C)c(C)sc2n1` (stereo not given) was tested, and the “activity change, negative = inhibition” value was inactive: 33.4%. `Cc1ccc(N/N=C(\Cc2nc3ccccc3[nH]2)c2ccccc2)cc1` was tested, and the Potency was inconclusive: 50.1 µM [inhibitor, partial curve]. For `OCC1OC(n2cnc3c(=S)nc[nH]c32)CC1O` (stereo not given), the Potency was inconclusive: 70.8 µM [inhibitor, single point]. In the case of `O=C(C=Cc1ccco1)c1ccc2ccccc2c1`, the Potency is reported as inconclusive: 56.2 µM [inhibitor, partial curve, poor fit]. With `C/C=C/CSc1nc2c(c(=O)[nH]c(=O)n2C)n1Cc1ccc(C)cc1` the “activity change, negative = inhibition” value was inactive: -9.8%. In the case of `CC(C)Cn1c(-c2ccc(Br)cc2)c[nH]c1=S`, the Potency is reported as inconclusive: 28.2 µM [inhibitor, full curve]. In the case of `CC(C)(C)NC(=O)CSc1nc2ccccc2c(=O)[nH]1`, the “activity change, negative = inhibition” value is reported as inactive: 53.2%. In the case of `CC(=O)Nc1sc(N/N=C/c2ccccc2)nc1-c1ccc(C)cc1`, the Potency is reported as inconclusive: 50.1 µM [inhibitor, single point]. For `CCN1/C(=C/C=C/C=C/C=C/c2sc3ccccc3[n+]2CC)Sc2ccccc21`, the Potency was inconclusive: 35.5 µM [inhibitor, partial curve]. `Cc1cccc(C)c1NC(=O)C/C(N)=N/O` was tested, and the Potency was inconclusive: 79.4 µM [inhibitor, partial curve, poor fit]. For `Cc1cc2oc(=O)cc(C)c2c2occ(-c3ccc(Cl)cc3)c12`, the “activity change, negative = inhibition” value was inactive: -1.29%. With `CCCCS(=O)(=O)Nc1ccc(C)cn1` the Potency was inconclusive: 15.8 µM [inhibitor, partial curve]. With `O=C(Nc1ncc(Cc2ccc(C(F)(F)F)cc2)s1)c1ccc(-c2cccc([N+](=O)[O-])c2)o1` the Potency was inconclusive: 28.2 µM [inhibitor, single point]. In the case of `Cc1ccnc(S(=O)(=O)Cc2ccc([N+](=O)[O-])cc2)n1`, the “activity change, negative = inhibition” value is reported as inactive: 78.7%. For `O=C(NCCCC1CCCC1)C1CCC(=O)N(Cc2ccc(Cl)cc2)C1` (stereo not given), the “activity change, negative = inhibition” value was inactive: 32.1%. With `COc1ccc2c(c1)Sc1ccccc1N2CCN(C)C` the Potency was active: 31.6 µM. In the case of `Cc1c(C)n(Cc2ccccc2)c2ccc(C(=O)OCCCN(C)C)cc12`, the Potency is reported as inconclusive: 39.8 µM [inhibitor, partial curve]. `CCOC(=O)N1CCN(C(=O)c2cc(OCC)c(OCC)c(OCC)c2)CC1` was tested, and the “activity change, negative = inhibition” value was inactive: 30.7%. With `COc1ccc(Nc2nc(N/N=C/c3ccc(N(C)C)cc3)nc(C)c2[N+](=O)[O-])cc1` the “activity change, negative = inhibition” value was inactive: -7.81%. In the case of `CS(=O)(=O)c1ccc(C(=O)OCc2nnc(-c3ccc(Cl)cc3)o2)cc1[N+](=O)[O-]`, the “activity change, negative = inhibition” value is reported as inactive: -2.04%. With `CCOC(=O)COc1ccccc1C1C(C(=O)OC)=C(C)NC2=C1C(=O)c1ccccc12` (stereo not given) the Potency was inconclusive: 35.5 µM [inhibitor, partial curve]. With `CCC(C(=O)O/N=C(\N)c1ccccc1)c1ccccc1` (stereo not given) the Potency was inconclusive: 39.8 µM [inhibitor, single point]. `O=C(COC(=O)/C=C/c1ccc(OC(F)F)cc1)NCCN1C(=O)CSC1=O` was tested, and the “activity change, negative = inhibition” value was inactive: 3.76%. For `COc1cc(/C=N/NS(=O)(=O)c2ccc(C(C)(C)C)cc2)cc([N+](=O)[O-])c1O`, the Potency was inconclusive: 79.4 µM [inhibitor, single point]. For `O=c1cc(C(F)(F)F)[nH]c(=S)n1-c1ccccc1`, the Potency was inconclusive: 89.1 µM [inhibitor, single point]. `Cc1cc(C)cc(Nc2nc(-c3ccc(S(=O)(=O)N4CCCC4)cc3)cs2)c1` was tested, and the “activity change, negative = inhibition” value was inactive: -2.34%. With `COc1ccc(OC)c(S(=O)(=O)Nc2ccc(-c3ccc4nncn4n3)cc2)c1` the Potency was inconclusive: 31.6 µM [inhibitor, partial curve]. With `Cc1ccc(C)c(C(=O)c2c(N)c(-c3nc(-c4ccc5c(c4)OCO5)cs3)c3ccccn23)c1` the “activity change, negative = inhibition” value was inactive: 28.2%. With `O=C(COC(=O)C12CC3CC(CC(Br)(C3)C1)C2)Nc1cccc(S(=O)(=O)N2CCOCC2)c1` the “activity change, negative = inhibition” value was inactive: -2.1%. For `O=C(Nc1ccc(N2CCOCC2)cc1)C1(c2ccc(Cl)cc2)CCC1`, the “activity change, negative = inhibition” value was inactive: -6.09%. For `NC(=O)c1c(NC(=O)CSc2nnc(-c3ccco3)n2-c2ccccc2)sc2c1CCC2`, the Potency was inconclusive: 11.2 µM [inhibitor, partial curve, poor fit].
